{
  "sequences": {"note": "Protein sequences, listed by entry. Tags and fused reporters are not part of them. Lines headed by an entry give the natural chain unless they say otherwise; changes in a name come on top.", "UniProt P40337": "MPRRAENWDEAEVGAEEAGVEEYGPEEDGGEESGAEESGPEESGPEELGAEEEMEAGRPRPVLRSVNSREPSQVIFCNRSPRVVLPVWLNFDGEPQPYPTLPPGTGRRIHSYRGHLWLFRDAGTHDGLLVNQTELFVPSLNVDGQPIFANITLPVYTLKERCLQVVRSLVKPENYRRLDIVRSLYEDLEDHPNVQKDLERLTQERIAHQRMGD", "UniProt O75928": "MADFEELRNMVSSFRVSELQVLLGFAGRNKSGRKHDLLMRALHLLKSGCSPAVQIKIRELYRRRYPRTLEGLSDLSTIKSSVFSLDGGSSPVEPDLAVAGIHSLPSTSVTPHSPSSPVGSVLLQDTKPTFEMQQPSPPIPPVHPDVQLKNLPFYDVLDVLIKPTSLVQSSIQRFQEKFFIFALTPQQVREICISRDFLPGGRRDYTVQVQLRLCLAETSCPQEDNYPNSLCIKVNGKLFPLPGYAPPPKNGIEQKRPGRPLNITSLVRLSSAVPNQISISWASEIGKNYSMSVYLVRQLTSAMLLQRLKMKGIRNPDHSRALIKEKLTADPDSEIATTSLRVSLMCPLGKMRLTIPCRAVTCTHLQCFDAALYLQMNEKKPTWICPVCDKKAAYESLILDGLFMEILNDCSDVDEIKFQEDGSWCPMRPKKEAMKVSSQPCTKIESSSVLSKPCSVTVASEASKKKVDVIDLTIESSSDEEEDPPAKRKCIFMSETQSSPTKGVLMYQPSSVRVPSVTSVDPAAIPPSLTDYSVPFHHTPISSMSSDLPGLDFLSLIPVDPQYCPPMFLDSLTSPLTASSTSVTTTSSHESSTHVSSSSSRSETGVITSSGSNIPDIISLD", "UniProt O75925": "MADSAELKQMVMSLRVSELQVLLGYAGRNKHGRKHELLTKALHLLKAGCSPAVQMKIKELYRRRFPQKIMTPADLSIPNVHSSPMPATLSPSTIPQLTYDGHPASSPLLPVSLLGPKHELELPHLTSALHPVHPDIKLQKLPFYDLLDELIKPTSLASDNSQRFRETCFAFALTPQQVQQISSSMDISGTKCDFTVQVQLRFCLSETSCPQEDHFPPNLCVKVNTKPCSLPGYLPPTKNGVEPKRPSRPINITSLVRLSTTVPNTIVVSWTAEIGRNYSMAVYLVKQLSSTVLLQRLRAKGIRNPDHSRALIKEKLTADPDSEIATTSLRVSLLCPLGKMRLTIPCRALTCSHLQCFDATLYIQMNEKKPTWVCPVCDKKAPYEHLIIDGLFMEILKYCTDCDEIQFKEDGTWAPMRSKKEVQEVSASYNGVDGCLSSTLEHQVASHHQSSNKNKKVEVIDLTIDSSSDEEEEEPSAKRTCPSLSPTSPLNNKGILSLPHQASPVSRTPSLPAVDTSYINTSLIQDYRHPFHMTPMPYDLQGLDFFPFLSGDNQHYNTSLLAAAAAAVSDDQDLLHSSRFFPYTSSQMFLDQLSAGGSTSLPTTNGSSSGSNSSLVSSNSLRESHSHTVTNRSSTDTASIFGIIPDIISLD", "UniProt P63279": "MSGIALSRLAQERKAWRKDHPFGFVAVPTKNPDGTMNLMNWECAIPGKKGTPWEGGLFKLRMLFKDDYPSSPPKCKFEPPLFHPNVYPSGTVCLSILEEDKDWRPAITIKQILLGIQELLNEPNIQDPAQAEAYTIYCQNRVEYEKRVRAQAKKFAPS"},
  "source": "paper PMC2838797",
  "key": {"FLAG-VHL (K196R) (human)": {"target": "FLAG-VHL (K196R) (human) (UniProt P40337)", "assay": "dimer-size band on immunoblot of whole cell lysate (oligomer assay); 786-O cells transfected, 48 hr, cell extracts immunoblotted with anti-FLAG; also with PIASy coexpression or PIASy knockdown (Figures 3A, 3B, 3D)"}, "[1]": {"target": "HA-VHL (wild type von Hippel Lindau tumor suppressor with HA tag) (human) (UniProt P40337)", "assay": "co-IP; HEK293 cells cotransfected, harvested 48 h posttransfection; RIPA lysates, IP and immunoblotting as indicated (Figures 2A, 2E, 4A)"}, "GST-PIASy1-492 (human)": {"target": "T1, GST-PIASy1-492 (human) (UniProt Q8N2W9)", "T1 sequence": "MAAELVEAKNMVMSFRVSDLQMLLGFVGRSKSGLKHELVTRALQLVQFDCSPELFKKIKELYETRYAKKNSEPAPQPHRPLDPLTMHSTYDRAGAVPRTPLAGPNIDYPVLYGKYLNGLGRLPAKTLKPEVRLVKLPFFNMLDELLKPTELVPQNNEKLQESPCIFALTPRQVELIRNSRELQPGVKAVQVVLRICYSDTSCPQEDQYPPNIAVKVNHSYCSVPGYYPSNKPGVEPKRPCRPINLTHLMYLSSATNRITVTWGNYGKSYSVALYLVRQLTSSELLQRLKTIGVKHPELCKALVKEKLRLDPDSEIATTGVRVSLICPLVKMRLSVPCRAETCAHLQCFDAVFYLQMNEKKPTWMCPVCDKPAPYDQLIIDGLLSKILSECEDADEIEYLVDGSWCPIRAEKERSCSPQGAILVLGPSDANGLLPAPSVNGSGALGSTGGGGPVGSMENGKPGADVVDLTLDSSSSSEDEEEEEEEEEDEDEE", "assay": "pull-down; GST-PIASy on glutathione sepharose beads, 35S-labeled in vitro-translated proteins, 4 hrs at 4°C, 50 mM Tris-HCl pH 7.5, 100 mM NaCl, 10 µM ZnCl2, 10% glycerol, 0.1 mM DTT; autoradiography (Figures 4B, S3); only the target purified"}, "[2]": {"target": "FLAG-VHL (wild type) (human) (UniProt P40337)", "assay": "co-IP; data not shown; Ubc9 and VHL with or without PIASy"}, "FLAG-VHL (K171R) (human)": {"target": "FLAG-VHL (K171R) (human) (UniProt P40337)", "assay": "dimer-size band on immunoblot of whole cell lysate (oligomer assay); 786-O cells transfected, 48 hr, cell extracts immunoblotted with anti-FLAG; also with PIASy coexpression or PIASy knockdown (Figures 3A, 3B, 3D)"}, "[3]": {"target": "T2, FLAG-PIASy (full length PIASy) (human) (UniProt Q8N2W9)", "T2 sequence": "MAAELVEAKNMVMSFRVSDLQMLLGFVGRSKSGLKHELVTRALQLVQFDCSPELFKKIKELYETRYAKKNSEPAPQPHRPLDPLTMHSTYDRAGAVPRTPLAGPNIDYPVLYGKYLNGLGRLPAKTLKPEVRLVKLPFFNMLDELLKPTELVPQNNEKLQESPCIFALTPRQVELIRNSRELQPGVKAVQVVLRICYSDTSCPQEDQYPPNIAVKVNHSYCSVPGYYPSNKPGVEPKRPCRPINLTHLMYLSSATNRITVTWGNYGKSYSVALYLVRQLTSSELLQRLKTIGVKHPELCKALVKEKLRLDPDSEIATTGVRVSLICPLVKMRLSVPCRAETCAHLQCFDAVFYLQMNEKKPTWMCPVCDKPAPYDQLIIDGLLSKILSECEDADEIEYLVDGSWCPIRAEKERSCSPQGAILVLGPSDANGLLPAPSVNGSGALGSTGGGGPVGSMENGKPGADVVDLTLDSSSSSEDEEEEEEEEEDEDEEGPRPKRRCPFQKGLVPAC", "assay": "co-IP; cells coexpressing FLAG-PIASy and HA-VHL truncated mutants (HEK293 in the text, 786-O in the legend); VHL precipitated by PIASy (Figure 4D)"}},
  "note": "No constants are given. Whether binding was seen depends on the method and setting. For some of these results: Binding seen in cells or lysates may run through a third protein. Some binding calls cover weakened binding; strength is not graded here. For some of these results: Where a sequence is shown, tags or fusion partners need not be part of it.",
  "data": [
    {"substance": "FLAG-VHL (K196R) (from UniProt P40337 1-213)", "values": [
      {"measurement": "binding", "setting": "FLAG-VHL (K196R) (human)", "result": "no binding"}
    ]},
    {"substance": "FLAG-PIASx (from UniProt O75928 1-621) (enzyme)", "values": [
      {"measurement": "binding", "setting": "[1]", "result": "no binding"}
    ]},
    {"substance": "wild type HA-VHL, in vitro translated, 35S-labeled (from UniProt P40337 1-213)", "values": [
      {"measurement": "binding", "setting": "GST-PIASy1-492 (human)", "result": "binds"}
    ]},
    {"substance": "FLAG-PIAS1 (from UniProt O75925 1-651) (enzyme)", "values": [
      {"measurement": "binding", "setting": "[1]", "result": "no binding"}
    ]},
    {"substance": "HA-Ubc9 (from UniProt P63279 1-158) (enzyme)", "values": [
      {"measurement": "binding", "setting": "[2]", "result": "binds"}
    ]},
    {"substance": "HA-VHL Δ1-53, in vitro translated, 35S-labeled (from UniProt P40337 54-213) (domain or fragment)", "values": [
      {"measurement": "binding", "setting": "GST-PIASy1-492 (human)", "result": "binds"}
    ]},
    {"substance": "FLAG-VHL (K171R) (from UniProt P40337 1-213)", "values": [
      {"measurement": "binding", "setting": "FLAG-VHL (K171R) (human)", "result": "no binding"}
    ]},
    {"substance": "HA-VHL 54-120, in vitro translated, 35S-labeled (from UniProt P40337 54-120) (domain or fragment)", "values": [
      {"measurement": "binding", "setting": "GST-PIASy1-492 (human)", "result": "binds"}
    ]},
    {"substance": "HA-VHL 54-190, in vitro translated, 35S-labeled (from UniProt P40337 54-190) (domain or fragment)", "values": [
      {"measurement": "binding", "setting": "GST-PIASy1-492 (human)", "result": "binds"}
    ]},
    {"substance": "HA-VHL (wild type von Hippel Lindau tumor suppressor with HA tag) (from UniProt P40337 1-213)", "values": [
      {"measurement": "binding", "setting": "[3]", "result": "binds"}
    ]},
    {"substance": "HA-VHL 54-151, in vitro translated, 35S-labeled (from UniProt P40337 54-151) (domain or fragment)", "values": [
      {"measurement": "binding", "setting": "GST-PIASy1-492 (human)", "result": "binds"}
    ]},
    {"substance": "HA-VHL Δ1-53 (from UniProt P40337-1 54-213) (domain or fragment)", "values": [
      {"measurement": "binding", "setting": "[3]", "result": "no binding"}
    ]},
    {"substance": "VHL, in vitro-translated, radiolabeled (wild type) (from UniProt P40337 1-213)", "values": [
      {"measurement": "binding", "setting": "GST-PIASy1-492 (human)", "result": "binds"}
    ]}
  ]
}
